{"source": "ChEMBL document CHEMBL4888484", "about": "“Replenishing the malaria drug discovery pipeline: Screening and hit evaluation of the MMV Hit Generation Library 1 (HGL1) against asexual blood stage Plasmodium falciparum ,using a nano luciferase reporter read-out” (2022)", "note": "The campaign covered roughly 150,000 compounds. About 540 (0.36%) showed an effect of 50% or more. The list shows a part of the results."}
{"system": "Plasmodium falciparum", "experiment": "Primary screen in NF54 nanoGlo assay, in single point, at 2uM, 72h; a lower Z score goes with more inhibition", "type": "functional, Erythrocyte", "conditions": "timepoint 72 hour", "units": {"% Inhibition": "%"}}
{"smiles": "O=C(NCCN1CCC(O)CC1)[C@H]1C[C@@H]1c1ccccc1", "% Inhibition": -8, "Z score": 1.2}
{"smiles": "Cc1cc(F)ccc1S(=O)(=O)N1CC(N2C(=O)COC2=O)C1", "% Inhibition": -6, "Z score": 1.07}
{"smiles": "O=C(NCc1ccccc1)c1nc(-c2ccnc(N3CCOCC3)c2)no1", "% Inhibition": 3, "Z score": -0.45}
{"smiles": "C[C@H]1CN(Cc2cn3ccccc3c2C#N)CCO1", "% Inhibition": 0, "Z score": 0.03}
{"smiles": "Cc1nc(C(C)C)oc1C(=O)N1CCC[C@@]2(CCOC2)C1", "% Inhibition": -14, "Z score": 1.67}
{"smiles": "CCS(=O)(=O)N[C@H](c1cccs1)C(C)(C)C", "% Inhibition": -9, "Z score": 0.89}
{"smiles": "Brc1cnn([C@H]2CCOC2)c1", "% Inhibition": -9, "Z score": 1.74}
{"smiles": "N#C[C@@H](C(=O)c1ccc2c(c1)COC2)c1ccccn1", "% Inhibition": -5, "Z score": 0.47}
{"smiles": "O=C(c1ccoc1)N1CCOc2ccc(N3CCCC3)cc2C1", "% Inhibition": -4, "Z score": 0.81}
{"smiles": "COCc1cn([C@@H]2CC[C@H]3CCOc4ccccc4C(=O)N4CCN(C5CCC5)C[C@H]4C(=O)NC[C@H]2O3)nn1", "% Inhibition": -7, "Z score": 0.87}
{"smiles": "CC(C)c1nnc(N2CCN(C(=O)c3cccc(F)c3)CC2)o1", "% Inhibition": -6, "Z score": 0.96}
{"smiles": "O=C(CCC(=O)c1ccccc1)N[C@@H]1COC2(CCCCC2)C1", "% Inhibition": -24, "Z score": 2.57}
{"smiles": "O=C(Nc1ccc(F)cc1)[C@@H]1CNCCN1C(=O)Cc1c[nH]c2ccccc12", "% Inhibition": 6, "Z score": -1.09}
{"smiles": "CN1CCN(C(=O)c2ccc(CO)cc2)C[C@@]12CCC(=O)N(CC1CC1)CC2", "% Inhibition": -8, "Z score": 0.8}
{"smiles": "Cc1ccc(C(=O)N2C[C@H](C(=O)O)[C@@H](c3ccc4c(c3)OCO4)C2)cc1F", "% Inhibition": -10, "Z score": 1.32}
{"smiles": "CC1(C)Cc2nc3[nH]nc(N)c3cc2CO1", "% Inhibition": -8, "Z score": 1.26}
{"smiles": "Cc1cnn([C@H]2CCCN(S(=O)(=O)c3c(C)cccc3Cl)C2)c1", "% Inhibition": -7, "Z score": 1.26}
{"smiles": "Cc1c(CN2CCC3(CC2)c2ccccc2C[C@@H]3O)cc(C#N)n1C", "% Inhibition": -17, "Z score": 2.31}
{"smiles": "CC(O)C1CCCCN1S(=O)(=O)c1ccc(Cl)c2ncccc12", "note": "(stereo not given)", "% Inhibition": 4, "Z score": -0.56}
{"smiles": "N#Cc1nccnc1N[C@H]1CCCN(CC(F)(F)F)C1", "% Inhibition": -11, "Z score": 1.83}
{"smiles": "CCOc1cccc(-n2cc(-c3ccccc3)nc2NC(=O)CN(Cc2ccccc2)C(=O)c2ccc(Cl)cc2)c1", "% Inhibition": -5, "Z score": 0.59}
{"smiles": "CC1c2[nH]c3ccccc3c2C(c2ccccc2Cl)CN1C(=O)CCn1cncn1", "note": "(stereo not given)", "% Inhibition": -3, "Z score": 0.44}
{"smiles": "COc1ccc(-n2ccc(=O)c3c2CCCC3=O)cc1", "% Inhibition": 7, "Z score": -0.83}
{"smiles": "CC(C)[C@H]1CN(CCC(=O)NC2CC2)C[C@@H]1Nc1ccc(C#N)cn1", "% Inhibition": -24, "Z score": 2.1}
{"smiles": "CCc1ncc(CNC(=O)c2ccc(C)c(CO)c2)o1", "% Inhibition": -4, "Z score": 0.6}
{"smiles": "Cn1cccc1C(=O)N1CCC(F)(C(=O)NCC2CC2)CC1", "% Inhibition": -7, "Z score": 0.89}
{"smiles": "COc1ccc([C@H](CO)N(C)C(=O)NC(C)C)cc1", "% Inhibition": -10, "Z score": 1.62}
{"smiles": "CC(=O)Nc1ccc2nc(CN(C)CC3(N4CCOCC4)CCCCC3)ccc2c1", "% Inhibition": -9, "Z score": 1.71}
{"smiles": "Cc1cc(C(=O)N2CC3(C[C@@H](c4nc(-c5ccccc5)no4)N(C)C3)C2)n(C)n1", "% Inhibition": -19, "Z score": 2.26}
{"smiles": "COc1ccc(-n2nc(C)c3sc(N4CCN(C(=O)c5ccc(C)c(C)c5)CC4)nc32)cc1", "% Inhibition": -15, "Z score": 1.65}
{"smiles": "Cc1ccncc1CC(=O)N(Cc1ccccc1)[C@H]1CC(C)(C)OC1(C)C", "% Inhibition": 13, "Z score": -1.48}
{"smiles": "O=C(NCCc1ccccc1)[C@@H]1CCN1S(=O)(=O)c1ccc2c(c1)OCCO2", "% Inhibition": -34, "Z score": 3.99}
{"smiles": "COC(=O)[C@@H]1CCCCN1Cc1cccc2nsnc12", "% Inhibition": -14, "Z score": 1.23}
{"smiles": "C[C@H](Oc1ccccc1-c1cc(C2CCC2)nc(N)c1C#N)C(=O)O", "% Inhibition": -28, "Z score": 3.42}
{"smiles": "O=C([C@H]1CCCN(S(=O)(=O)c2cccc3nonc23)C1)N1CCc2ccccc2C1", "% Inhibition": -3, "Z score": 0.52}
{"smiles": "CCc1nn(C)cc1NCc1cnnn1C", "% Inhibition": -8, "Z score": 1.08}
{"smiles": "Cc1nc(CCNC(=O)C(C)(C)NC(=O)Nc2ccccc2)cs1", "% Inhibition": -6, "Z score": 1}
{"smiles": "Nc1nonc1C(=O)NCCc1ccccc1", "% Inhibition": -8, "Z score": 1.06}
{"smiles": "COCC1(CNC(=O)[C@H](C)c2cnn(C)c2)CCCCC1", "% Inhibition": 0, "Z score": -0.01}
{"smiles": "O=C1CN(c2ccc(NC(=O)[C@@H]3CCCc4c(O)cccc43)cn2)CCN1", "% Inhibition": 10, "Z score": -1.02}
{"smiles": "COCCN(CCN(C(C)=O)c1ccc(F)cc1)C(C)=O", "% Inhibition": -12, "Z score": 1.14}
{"smiles": "O=S(=O)(c1c[nH]c2cccc(F)c12)N1CC(C2CC2)C1C1CC1", "note": "(stereo not given)", "% Inhibition": 2, "Z score": -0.46}
{"smiles": "CCc1nn(C)c(NC(=O)[C@@H]2CCCC[C@@H]2C(=O)N2CCCC2)c1C", "% Inhibition": -4, "Z score": 0.81}
{"smiles": "c1coc(-c2nc(CNC[C@H]3CN(C4CC4)CCO3)cs2)c1", "% Inhibition": -5, "Z score": 0.66}
{"smiles": "Cc1cnc(C[C@H]2CCN(C(=O)NC3CCCCC3)C2)n1C1CC1", "% Inhibition": -14, "Z score": 1.76}
{"smiles": "O=C(Nc1ccc(C2OC(=O)N(Cc3ccccc3)C2C(=O)NCC2CCCO2)cc1)c1ccco1", "note": "(stereo not given)", "% Inhibition": -11, "Z score": 1.57}
{"smiles": "CC1CC(C)CN(c2ccc(S(=O)(=O)N3CCOCC3)cc2)C1", "note": "(stereo not given)", "% Inhibition": -14, "Z score": 1.77}
{"smiles": "Cc1ccc(NC(=O)NC2CCOCC2)c(C)c1", "% Inhibition": 0, "Z score": -0.08}
{"smiles": "O=C(CCc1ccco1)Nc1cn[nH]c1", "% Inhibition": -11, "Z score": 1.05}
{"smiles": "O=C(NCC1(Cn2cccn2)CC1)c1c(O)cccc1O", "% Inhibition": -15, "Z score": 2.76}
{"smiles": "CC(C)c1ccc(NC(=O)CCN2CCC(O)(c3ccccn3)CC2)cc1", "% Inhibition": -3, "Z score": 0.55}
{"smiles": "Cc1nccn1[C@H]1[C@@H]2OC[C@@H](O2)[C@@H](NCc2ccncc2F)[C@@H]1O", "% Inhibition": 34, "Z score": -3.88}
{"smiles": "Cc1csc(CNC2CCN(c3ccccc3Cl)CC2)n1", "% Inhibition": 4, "Z score": -0.66}
{"smiles": "CCCCNC(=O)[C@@H]1CCCC[C@@H]1C(=O)NCc1cc(O)nc(C)n1", "% Inhibition": 8, "Z score": -0.99}
{"smiles": "C/C(=C\\c1ccccc1)CN1CC[C@@]2(CCCNC2)C1", "% Inhibition": -5, "Z score": 0.88}
{"smiles": "Cc1csc(Cn2ccnc2-c2cncc(Br)c2)n1", "% Inhibition": -4, "Z score": 0.78}
{"smiles": "CCCC[C@H](CC)C(=O)Nc1nnc(C(CC)CC)s1", "% Inhibition": -2, "Z score": 0.31}
{"smiles": "C[C@](O)(CNC(=O)CC1CC(c2ccccc2)C1)CN1CCOCC1", "note": "(stereo not given in full)", "% Inhibition": -2, "Z score": 0.24}
{"smiles": "O=C(NCCOc1ccccc1)Nc1ccc(NC(=O)c2ccco2)cc1", "% Inhibition": 8, "Z score": -0.98}
{"smiles": "O=C(CCN1C[C@@H](O)[C@@H](O)[C@@H](O)C1)Nc1cc(Cl)ccc1Cl", "% Inhibition": -5, "Z score": 0.6}
{"smiles": "CC(C)COCCCNC(=O)Nc1ccn(CCCn2ccnc2)n1", "% Inhibition": 1, "Z score": -0.08}
{"smiles": "COc1cccc(Cn2ncnc2-c2cn([C@H]3CC[C@@H](N)CC3)nn2)c1", "% Inhibition": -16, "Z score": 2.51}
{"smiles": "COc1ccc(-c2cc(C(=O)N[C@H](C(=O)N3CCCC3)C(C)C)no2)c(OC)c1", "% Inhibition": -9, "Z score": 1.11}
{"smiles": "CC(C)Oc1ccc(CN2CC[C@@H]2C)cc1CO", "% Inhibition": 6, "Z score": -0.56}
{"smiles": "COc1nccc(N2CCC3(CC2)CC(=O)N(CC=C(C)C)C3)c1C#N", "% Inhibition": 5, "Z score": -0.74}
{"smiles": "CN(C)C(=O)CO[C@H]1COCC[C@@H]1NC(=O)c1c(F)cccc1F", "% Inhibition": 4, "Z score": -0.63}
{"smiles": "CCOc1cnc(-c2ccc(F)cc2)[nH]1", "% Inhibition": -23, "Z score": 2.71}
{"smiles": "N#Cc1cnn2c(NC3CCCCC3)c(-c3cccs3)[nH]c12", "% Inhibition": -6, "Z score": 0.98}
{"smiles": "C[C@H](C(=O)NS(=O)(=O)c1ccsc1)c1ccccc1", "% Inhibition": -6, "Z score": 1.03}
{"smiles": "COc1ccc(N2CCN(C(=O)c3cc(=O)c(OCc4ccc(Cl)cc4)c[nH]3)CC2)cc1", "% Inhibition": 3, "Z score": -0.43}
{"smiles": "O=C1CC(C2CCCCN2Cc2c(F)cccc2F)CN1", "note": "(stereo not given)", "% Inhibition": 13, "Z score": -1.52}
{"smiles": "CCC(=O)N1CCN(C(=O)c2ccc(Cl)cc2)[C@H]2CS(=O)(=O)C[C@H]21", "% Inhibition": -5, "Z score": 0.92}
{"smiles": "Cc1ccc2[nH]c(CNCC(C)(C)CN3CCCC3)nc2c1", "% Inhibition": -8, "Z score": 0.67}
{"smiles": "C[C@H](NC(=O)c1ccc(Br)cn1)C(N)=O", "% Inhibition": -1, "Z score": 0.09}
{"smiles": "OC[C@H]1CCN(Cc2cnc(NCc3ccccc3)nc2)C[C@@H]1O", "% Inhibition": -11, "Z score": 1.36}
{"smiles": "CCc1onc(C)c1NC(=O)NC[C@H]1CN(C)C[C@@H]1c1ccccc1", "% Inhibition": -23, "Z score": 2.88}
{"smiles": "Cc1nc(C(C)C)nc(C)c1OCc1nc(-c2cccs2)no1", "% Inhibition": 10, "Z score": -1.9}
{"smiles": "Cc1cc(=O)[nH]c(CCNS(=O)(=O)N(C)C(C)C)n1", "% Inhibition": 2, "Z score": -0.22}
{"smiles": "CC(C)Cn1nnc2ccc(NC(=O)CCCc3ccccc3)cc2c1=O", "% Inhibition": 22, "Z score": -3.57}
{"smiles": "Cc1cc(C(=O)N[C@H]2CCCN(C)C2)no1", "% Inhibition": -7, "Z score": 1.27}
{"smiles": "CCN(C[C@H](C)C#N)S(=O)(=O)N1CCN(c2cc(C)[nH]n2)CC1", "% Inhibition": -10, "Z score": 1.29}
{"smiles": "C[C@H]1CNC(=O)CCN1Cc1ccc2cccc(Cl)c2n1", "% Inhibition": -14, "Z score": 1.54}
{"smiles": "CCn1cc(N)c(OCCC(F)(F)F)n1", "% Inhibition": -12, "Z score": 1.91}
{"smiles": "COc1ccc(C)cc1NC(=O)Cn1nc2c(N3CCC[C@H](C)C3)nccn2c1=O", "% Inhibition": -6, "Z score": 0.71}
{"smiles": "O=C(NCCCN1CCCC1=O)c1nnc(Cc2cccc(Cl)c2)o1", "% Inhibition": -10, "Z score": 1.5}
